Consider 44 molecules from ChEMBL document CHEMBL4888484, “Replenishing the malaria drug discovery pipeline: Screening and hit evaluation of the MMV Hit Generation Library 1 (HGL1) against asexual blood stage Plasmodium falciparum ,using a nano luciferase reporter read-out” (2022).

Among all 150,000 compounds or so, about 540 (0.36%) showed an effect of 50% or more. This is one part of the list.

The test concerns Plasmodium falciparum. The experiment in a line: Primary screen in NF54 nanoGlo assay, in single point, at 2uM, 72h; a lower Z score goes with more inhibition. The format is functional, Erythrocyte. Conditions: timepoint 72 hour.
Usually % Inhibition stands for the drop in the measured response relative to a control, in per cent. For the molecule `C=CCn1ncc(-c2nc3c(cnn3Cc3cccc(Cl)c3)[nH]2)c1C`, the “% Inhibition” value came to 9% and the Z score is on record as -1.2.
For the molecule `O=C(Nc1ccc(Cl)c(F)c1)N1CCC[C@H](C(=O)N2CCCC2)C1`, the “% Inhibition” value is reported as -11% and the Z score is recorded as 1.4.
Consider `Nc1nc(NCCOCc2ccc(Cl)cc2)cc(C2CC(O)C2)n1` (stereo not drawn), for which the “% Inhibition” value worked out at 5% and the Z score is recorded as -0.97.
Turning to `Cc1ccc(NC(=O)c2cc3n(n2)CCCC3)c(Cl)c1`, the “% Inhibition” value is on record as -2% and the Z score is 0.22.
`CN(C)C(=O)NCc1cc2n(n1)CCCN(C/C=C/c1ccc(F)cc1)C2`: the “% Inhibition” value was determined as 7% and the Z score was -0.67.
The like results for `Cc1nc(N(C)C)sc1CN1CCC(n2cc(Cl)cn2)CC1` were, in that order, -8% and 1.23.
For `Cc1cscc1C(=O)N[C@H](C#N)c1ccsc1`, in that order: -10% and 1.05.
`COc1cccc(C2CN(C(=O)c3ccc4c(c3)OCO4)CC2C(=O)NCC(C)C)c1` (stereo not drawn): the “% Inhibition” value is reported as -18% and the Z score was 1.9.
For `COC(=O)c1cn(Nc2nc3ccccc3[nH]2)cc(C(=O)OC)c1=O`, in that order: -10% and 1.43.
The like results for `Cc1noc(C)c1NC(=O)c1cccnc1` were, in that order, -7% and 1.27.
The like results for `COc1ccc(C)cc1NC(=O)Cc1csc(NC(=O)[C@@H]2CCC(=O)N2)n1` were, in that order, -4% and 0.75.
Turning to `O=C(COc1ccc2ccccc2c1)N(Cc1nnc(-c2ccc(Cl)cc2)o1)C1CCCC1`, the “% Inhibition” value is on record as 5% and the Z score is reported as -0.5.
Regarding `COc1ccc2cc1Oc1cccc(c1)CO[C@H]1CCN(C(=O)c3nn(C)c(C)c3Cl)C[C@H]1NC(=O)CC2`, the “% Inhibition” value was -13% and the Z score came out at 1.61.
For the molecule `CCO[C@H]1C[C@@H](O)C12CCN(C(=O)CCc1c(C)noc1C)CC2`, the “% Inhibition” value is -18% and the Z score was 1.78.
Consider `CCOC(=O)c1cc(NC(=O)N(C)Cc2nccn2CC)ccc1Cl`, for which the “% Inhibition” value is 13% and the Z score was -1.83.
The like results for `NC(=O)c1ccc(C(=O)N2CC3(CCN3Cc3ccccc3)C2)cc1` were, in that order, 13% and -1.7.
The like results for `O=S(=O)(c1cccc2nonc12)N1CCOCC1` were, in that order, -1% and 0.11.
For `COCCCNC(=O)C(C)NC1CCCCC1C` (stereo not drawn), in that order: 0% and 0.
`c1cc(-c2nc([C@H]3CCOC3)no2)cc(-n2cnnn2)c1`: the “% Inhibition” value is reported as -7% and the Z score worked out at 0.74.
The like results for `COC(C)(C)c1nc(CC(=O)NC2CCCC2)no1` were, in that order, -8% and 1.04.
The like results for `Cn1cc(S(=O)(=O)N2CCCCc3ccc(Cl)cc32)cn1` were, in that order, -9% and 1.55.
The like results for `COc1ncnc(N)c1CNCC1CCOC1c1ccccc1` (stereo not drawn) were, in that order, 9% and -1.01.
With `Cc1cc(C2(C(=O)Nc3ccc(F)c(N4CCOCC4)c3)CCOCC2)on1`, the “% Inhibition” value is recorded as -14% and the Z score came out at 2.79.
For `CCC(CC)N(C)C(=O)N[C@@H](C)Cc1ccsc1`, the “% Inhibition” value is on record as -3% and the Z score was found to be 0.25.
Consider `CC1CCCN(C(=O)CCCc2ccc3[nH]c(=O)[nH]c3c2)C1CN` (stereo not drawn), for which the “% Inhibition” value is given as 2% and the Z score is -0.34.
Regarding `CCn1ncc(NC(=O)Cn2ncc3cc(-c4cccc(OC)c4)ccc32)n1`, the “% Inhibition” value is -17% and the Z score stood at 2.37.
For `O=C(c1cccs1)N1CC[C@H]2[C@H](CCC(=O)N2CCc2c[nH]cn2)C1`, in that order: -20% and 3.36.
The like results for `O=C1NCCN2CC3(CCN(C(=O)CCC4CCCC4)CC3)C[C@@H]12` were, in that order, -3% and 0.61.
For the molecule `Cc1ccc(N2C(=O)N[C@@](c3ccc(F)cc3)(C(F)(F)F)C2=O)nc1`, the “% Inhibition” value is listed as -4% and the Z score is reported as 0.62.
Consider `Clc1ccc(OC[C@@H]2CCCN2)cc1`, for which the “% Inhibition” value was -4% and the Z score amounted to 0.41.
Regarding `CN(CCO)c1ccc(/C=C/C2CCCCC2)nn1`, the “% Inhibition” value is 10% and the Z score is -1.28.
`O=C(Cc1ccccc1F)N1CC[C@H](c2nc(C3CCOCC3)no2)C1`: the “% Inhibition” value is listed as -10% and the Z score is recorded as 1.49.
Turning to `C[C@H](NC(=O)OC(C)(C)C)c1cnccn1`, the “% Inhibition” value is -6% and the Z score worked out at 0.63.
The like results for `C[C@H]1CN(C(=O)NCC2CCCCC2)C[C@@H]1CS(N)(=O)=O` were, in that order, -19% and 3.84.
For `CCCCNC(=O)c1ccccc1Cl`, in that order: 6% and -0.73.
The like results for `CC(Cc1ccccc1Cl)NC(=O)C1CCNC1` (stereo not drawn) were, in that order, 3% and -0.4.
As for `CCCOc1ccc(C(O)CCNC(C)C(=O)O)cc1` (stereo not drawn), the “% Inhibition” value is -5% and the Z score is reported as 0.58.
Take `COCCN(CC1CCN(Cc2ccccc2F)CC1)C(=O)C1CCCC1`: the “% Inhibition” value is on record as -20% and the Z score is on record as 1.85.
On to `CCC(=O)NCc1cccc(-c2cccc3ccnn23)c1`, for which the “% Inhibition” value is on record as -4% and the Z score came to 0.7.
The like results for `Cc1ccc(-c2nccc(Oc3ccc(C(=O)NCc4ccc5c(c4)OCO5)cc3)n2)cc1` were, in that order, -13% and 1.72.
For `CC(C)Cc1nnc(C[C@H]2CCN(C(=O)c3cscn3)C2)o1`, the “% Inhibition” value is -9% and the Z score came out at 1.25.
For the molecule `Cc1ccc(C(=O)N2CCCn3cc(-c4cccc(C#N)c4)nc32)cc1`, the “% Inhibition” value is -6% and the Z score stood at 0.96.
Turning to `O=C(NCc1ccco1)N[C@H]1CCCS(=O)(=O)C1`, the “% Inhibition” value is recorded as -2% and the Z score is given as 0.48.
For `COc1nc2c(cc1CNC(=O)c1ccc(N)nc1)C(=O)N(C1CCCC1)C2`, in that order: -16% and 2.25.
